In PubChem BioAssay AID686979 (National Center for Advancing Translational Sciences (NCATS), 2013):
Where “and” joins values, the source holds several entries; their conditions need not be identical. Identical values can stand only once. Out of some 420,000 compounds screened, about 50,000 (12%) were called active. The inconclusive results got no clear call from the source; some entries with a clear call stand among them for comparison. Calls come from the whole dose curve; as a rule, active = well fitted inhibition curve with a large enough effect; inconclusive = small, poorly fitted or top-dose-only effect; inactive = flat fitted curve, though single readings scatter. Potencies of inconclusive entries are left out as doubtful fits.
% is set by controls: 0 for no effect and ±100 for the full control effect; potency is the fitted concentration of half-maximal effect; tags give direction and shape of the fitted curve.

Experiment: qHTS for Inhibitors of human tyrosyl-DNA phosphodiesterase 1 (TDP1): qHTS in cells in presence of CPT; note: nearly all actives have a fitted effect of over 55% in size
Settings: chicken DT40 Tdp1-/-;hTDP1 cells + 20 nM CPT, ATP luminescence, 48 h; activity change, negative = growth inhibition: at 46.2 µM (top of the series) unless noted
How it was run: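 Chicken DT40 Tdp1-/- cells stably complemented with human TDP1 were seeded at 400 cells/well in medium containing 20 nM camptothecin, exposed to pin-transferred compounds, and grown at 37 °C for at least 48 hr. Viability was read as ATP luminescence.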
In the case of `CCCNC(=O)Cn1ncc2c3ccccc3n(CCC)c2c1=O`, the Potency is reported as inconclusive [inhibitor, single point].
In the case of `Cn1c(OCc2ccco2)nc2c1c(=O)n(Cc1ccc(Cl)c(Cl)c1)c(=O)n2C`, the Potency is reported as inconclusive [inhibitor, single point].
With `CCOC(=O)c1cn(CC)c2cc(N3CCCCC3)c(F)cc2c1=O` the Potency was “inactive”.
With `COc1cc(C(=O)OCC(=O)Nc2ccccc2C(=O)NC2CC2)c([N+](=O)[O-])cc1OC` the Potency was “inactive”.
For `CCOc1ccc(C(C(=O)NCC2CCCO2)N(Cc2ccccc2)C(=O)c2snc(C(N)=O)c2N)cc1` (stereo not drawn), the Potency was inconclusive [inhibitor, single point].
In the case of `O=C(NCC1CCCCC1)c1ccc2nc([C@@H]3O[C@H](CO)[C@H](O)[C@H](O)[C@H]3O)[nH]c2c1`, the Potency is reported as “inactive”.
In the case of `CC(C)c1cccc(-c2csc(C(O)c3ccco3)n2)c1` (stereo not drawn), the Potency is reported as inconclusive [inhibitor, single point].
With `Cn1c(NCCN(CCO)CCCc2ccc([N+](=O)[O-])cc2)cc(=O)n(C)c1=O` the activity change, negative = growth inhibition was inconclusive: -25.4% [inhibitor].
For `CCn1cnc2scc(-c3ccc(C)c(C)c3)c2c1=O`, the Potency was inconclusive [inhibitor, single point].
For `CCOc1ccc(OCC)c(NC(=O)c2cnn(-c3ccc(F)cc3)c2C2CCN(C(=O)OC(C)(C)C)CC2)c1`, the Potency was inconclusive [inhibitor, single point].
In the case of `CCOC(=O)C1CCCN(C(=O)Cn2ncc3c(C)n(Cc4ccc(F)cc4)c(C)c3c2=O)C1` (stereo not drawn), the Potency is reported as active: 14.6 µM.
With `CC(=O)c1c(C)[nH]c(C(=O)COc2cc(C)cc(C)c2)c1C` the Potency was inconclusive [inhibitor, partial curve].
With `COc1ccc(S(=O)(=O)N2CCN(Cc3ccc4c(c3)OCO4)CC2)c2ccccc12` the Potency was inconclusive [inhibitor, single point].
For `COc1ccc(CN2CCN(Cc3ccon3)CC2CCO)c(C)c1C` (stereo not drawn), the Potency was “inactive”.
With `COc1cccc(-c2cncnc2NCc2cccc(C)c2)c1` the Potency was inconclusive [inhibitor, single point].
With `COc1ccc(C2OC(=O)CC2C(=O)NCc2ccccc2Cl)cc1OC` (stereo not drawn) the Potency was “inactive”.
With `c1ccc(OCCn2c(-c3ccco3)nc3ccccc32)cc1` the Potency was inconclusive [inhibitor, single point].
For `Cc1csc(NC(=O)c2ccc(S(=O)(=O)N3CCN(C)CC3)cc2)n1`, the Potency was “inactive”.
In the case of `CCOc1ccc(NC(=O)Nc2ccc3nsnc3c2)cc1`, the Potency is reported as inconclusive [inhibitor, single point].
With `Cc1ccc(NS(=O)(=O)c2ccc(-c3coc(C)n3)cc2)c(C)c1` the Potency was inconclusive [inhibitor, single point].
In the case of `CC(=O)Nc1ccc(C=NNc2ccc([N+](=O)[O-])cn2)cc1`, the Potency is reported as active: 23.1 µM.
In the case of `O=[N+]([O-])c1ccc(CNc2cccc(Cl)c2)s1`, the Potency is reported as inconclusive [inhibitor, single point].
With `O=C(c1cc2c(s1)CCCC2)N1CCN(S(=O)(=O)c2ccccc2C(F)(F)F)CC1` the Potency was inconclusive [inhibitor, single point].
With `CCn1c(-c2csc3c2CCCC3)n[nH]c1=S` the Potency was active: 29.1 µM.
With `O=C(NCCOc1ccccc1Cl)C(=O)c1c[nH]c2ccccc12` the Potency was inconclusive [inhibitor, single point].
In the case of `Cc1noc(C)c1COc1cccc(C(=O)Nc2ccc3c(c2)OCO3)c1`, the Potency is reported as inconclusive [inhibitor, single point].
In the case of `Cc1cccc(NC(=O)CCc2nc3sc4c(c3c(=O)[nH]2)CCCC4)n1`, the Potency is reported as inconclusive [inhibitor, partial curve, poor fit].
With `CC(CC(=O)NC1CCSC1=O)c1ccccc1` (stereo not drawn) the Potency was “inactive”.
With `CCOc1ccc(-n2c(C)nc3cc(C(=O)NCc4ccc(C)cc4)ccc32)cc1` the Potency was inconclusive [inhibitor, single point].
With `C=CCn1c(SCC(=O)NCCOC)nnc1-c1cc2c(s1)CCC(CC)C2` (stereo not drawn) the Potency was inconclusive [inhibitor, single point].
For `CCOc1ccc2c(c1)c(=O)c(C(=O)c1ccc3c(c1)OCO3)cn2Cc1cccc(F)c1`, the Potency was inconclusive [inhibitor, single point].
For `COC(=O)[C@@]12C[C@@H](CC(=O)NCCCCc3ccccc3)C(=O)N(CCc3ccc(OC)c(OC)c3)C1=CCC(C)(C)C2`, the Potency was inconclusive [inhibitor, single point].
In the case of `CC(O)(c1ccc(F)c(F)c1)c1nc(-c2cccc3cccnc23)cs1` (stereo not drawn), the Potency is reported as inconclusive [inhibitor, single point].
With `O=C(O)CNC(=O)c1ccccc1Br` the Potency was “inactive”.
For `COc1ccc([C@H]2C[C@H](n3cc(-c4ccc(F)cc4)nn3)[C@@H](O)CN2C(=O)C2CCCCC2)cc1`, the Potency was inconclusive [inhibitor, single point].
In the case of `O=C(Nc1cccc(O)c1)C(=O)Nc1ccccn1`, the Potency is reported as inconclusive [inhibitor, partial curve].
With `COc1ccc(NC(=O)C2(C)CCN2C(=O)c2ccccc2CCc2ccccc2)cc1OC` (stereo not drawn) the Potency was active: 14.6 µM.
For `O=C(CCCCCCCCC(=O)N1CCCCC1)N1CCCCC1`, the Potency was inconclusive [inhibitor, partial curve, poor fit].
In the case of `COc1ccc(-c2ccc(-c3noc(-c4cc(OC)cc(OC)c4)n3)c(OC)n2)cc1`, the Potency is reported as “inactive”.
In the case of `Cc1ccc(C(=O)N2CCN(c3ccc([N+](=O)[O-])c(NCc4ccco4)c3)CC2)cc1`, the Potency is reported as inconclusive [inhibitor, single point].
In the case of `COc1ccc(-c2ocnc2C(=O)Nc2ccccc2N2CCCCC2)cc1`, the Potency is reported as inconclusive [inhibitor, single point].
For `COC(=O)Nc1nc2ccc(C(=O)c3ccccc3)cc2[nH]1`, the Potency was active: 461 nM and active: 360 nM.
In the case of `CC(C)C(=O)N1CCC(c2nc(-c3ccc(S(=O)(=O)N4CCCC4)cc3)no2)CC1`, the Potency is reported as inconclusive [inhibitor, partial curve, poor fit].
